# In all, about 310,000 compounds went through this assay and about 14,000 (4.5%) showed an effect of 50% or more. Effects have a minus sign here. This is one part of the list.
# Target: human ether-à-go-go-related gene (hERG) potassium channel (human, UniProt Q12809)
# Test: primary screen, population patch clamp on CHO cells stably expressing hERG
# 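Also: peak tail current of the secondary pulse compared with the same well before compound.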
# human ether-à-go-go-related gene (hERG) potassium channel, sequence (Q12809 whole entry, looked up): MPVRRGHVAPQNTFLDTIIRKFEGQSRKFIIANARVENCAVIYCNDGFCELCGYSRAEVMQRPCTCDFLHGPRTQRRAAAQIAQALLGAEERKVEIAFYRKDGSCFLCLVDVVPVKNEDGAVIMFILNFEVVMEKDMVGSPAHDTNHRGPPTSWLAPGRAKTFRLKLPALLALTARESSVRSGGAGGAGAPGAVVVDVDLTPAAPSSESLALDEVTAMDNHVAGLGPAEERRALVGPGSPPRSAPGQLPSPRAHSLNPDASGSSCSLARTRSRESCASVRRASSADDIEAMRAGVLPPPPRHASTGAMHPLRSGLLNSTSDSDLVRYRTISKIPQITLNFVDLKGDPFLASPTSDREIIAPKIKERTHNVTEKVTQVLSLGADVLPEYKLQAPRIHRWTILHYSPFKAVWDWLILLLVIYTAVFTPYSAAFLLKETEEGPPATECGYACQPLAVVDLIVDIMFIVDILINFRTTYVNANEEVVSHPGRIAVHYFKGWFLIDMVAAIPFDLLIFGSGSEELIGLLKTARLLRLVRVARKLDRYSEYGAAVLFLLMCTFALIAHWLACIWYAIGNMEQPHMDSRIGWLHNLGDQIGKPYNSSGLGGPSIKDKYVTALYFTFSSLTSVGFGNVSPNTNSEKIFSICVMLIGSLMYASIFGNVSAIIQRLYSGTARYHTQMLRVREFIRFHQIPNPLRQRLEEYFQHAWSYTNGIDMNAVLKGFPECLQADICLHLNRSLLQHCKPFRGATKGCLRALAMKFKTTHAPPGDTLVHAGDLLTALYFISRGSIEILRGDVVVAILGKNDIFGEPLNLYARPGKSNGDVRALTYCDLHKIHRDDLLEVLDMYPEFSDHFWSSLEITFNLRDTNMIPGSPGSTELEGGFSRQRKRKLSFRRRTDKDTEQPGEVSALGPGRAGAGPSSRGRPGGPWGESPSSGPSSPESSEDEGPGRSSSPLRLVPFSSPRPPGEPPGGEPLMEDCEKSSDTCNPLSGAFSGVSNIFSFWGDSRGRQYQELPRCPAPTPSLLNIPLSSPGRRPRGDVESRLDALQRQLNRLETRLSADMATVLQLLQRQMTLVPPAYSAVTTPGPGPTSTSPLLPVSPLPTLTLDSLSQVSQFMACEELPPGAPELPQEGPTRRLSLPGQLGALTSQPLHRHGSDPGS
row,Structure (SMILES),"hERG current change (%, negative = inhibition) at 10uM"
1,COc1ccc(CNC(=O)c2ccccc2SC)cc1,-3.84%
2,O=C(N/N=C\c1cc(Br)c(Br)o1)C1COc2ccccc2O1 (stereo not drawn),6.93%
3,COc1ccc(CN2C(=O)C(Cc3ccccc3)Nc3ncnc(N4CCCCC4)c32)cc1.O=C(O)C(F)(F)F (stereo not drawn),-7.89%
4,COCCCNC(=S)NNC(=O)Cn1nc(C)c(Br)c1C,14.4%
5,Cc1cccc(N2CCN(C(=S)Nc3ccc4nc5n(c(=O)c4c3)CCCCC5)CC2)c1C,-15.6%
6,Cc1ccc(S(=O)(=O)NCCC(=O)NCC(c2cccs2)N(C)C)cc1 (stereo not drawn),-2.07%
7,O=C(COC(=O)c1ccc(O)cc1)Nc1nccs1,26.1%
8,COC(=O)c1cccc(Nc2ncnc3ccc(C)cc23)c1,-20.9%
9,Cc1ccc([N+](=O)[O-])cc1N/C=C1\CCc2ccccc2C1=O,5.38%
10,Cc1ccc(-c2ccnc3nc(Sc4ncc(C(F)(F)F)cc4Cl)nn23)cc1,-1.35%
11,Cc1ccc(-n2nc3c(c2NC(=O)c2ccc4c(c2)OCO4)CS(=O)(=O)C3)cc1C,1.01%
12,O=C(c1ccc(Cl)cc1)N1CCCC(C(=O)N2CCc3ccccc3C2)C1 (stereo not drawn),-17.7%
13,CCOc1ccc(S(=O)(=O)N(CC(=O)N2CCC(C(N)=O)CC2)c2ccc(F)cc2)cc1,-49%
14,Cn1cc(/C=C/C(=O)N2CCCC(C(=O)c3cccc(C(F)(F)F)c3)C2)cn1 (stereo not drawn),-7.54%
15,CCc1ccccc1NC(=O)c1cc2ncc(Br)cn2n1,9.22%
16,CCS(=O)(=O)N1CCC(C(=O)NCc2ccccc2OC)CC1,-0.242%
17,CCCNC(=O)N1CCN(C(=O)NCCC)CC1,10.7%
18,Cc1ccc(-n2cc(CNCCN3CCOC3=O)c(-c3ccc(F)cc3)n2)cc1,-63.2%
19,COc1ccc(NS(=O)(=O)c2cccc(C(=O)NNC(=O)c3cncc(Br)c3)c2)cc1,2.21%
20,COc1cccc2nc3cc(C)c(C)cc3nc12,-7.73%
21,Cc1cccc(C)c1NC(=O)C1CCCNC1 (stereo not drawn),-16.9%
22,CCOC(=O)c1[nH]c(C)c(C(=O)N2CCN(C(=O)OCC)CC2)c1CC,8.27%

row,Structure (SMILES),"hERG current change (%, negative = inhibition) at 10uM"
1,COc1ccc(S(=O)(=O)n2cnc3cc(C)c(C)cc32)cc1C,9.01%
2,c1cncc(-c2nnc3sc(-c4ccco4)nn23)c1,-23.2%
3,CC(=O)Nc1ccc(NC(=O)c2c(-c3ccccc3)noc2C)cn1,15.9%
4,COc1cc(C(=O)NNC(=O)c2ccc(NC(C)=O)cc2)cc(OC)c1OC,8.67%
5,CC1CCCN(c2c([N+](=O)[O-])cc(C(=O)O)cc2[N+](=O)[O-])C1 (stereo not drawn),9.39%
6,CCc1n[nH]c(=O)c2cc3cc(OC)ccc3n12,6.75%
7,COc1cc2c(cc1OC)CN(C(=O)C1CCCN1S(=O)(=O)c1ccc(F)cc1)CC2 (stereo not drawn),11.6%
8,Cc1ccccc1C(CC(=O)c1cccs1)C(C#N)C#N (stereo not drawn),20.2%
9,CC(=O)N1CCN(Cc2nc3cc(NC(=O)Cn4nc(C)c5ccccc5c4=O)ccc3n2C)CC1,17.9%
10,CC(C)OCCCNC(=O)c1ccc(CS(=O)(=O)c2cccc(C(F)(F)F)c2)o1,-4.95%
11,COc1cc(OC)cc(C(=O)NNC(=O)CCCOc2ccccc2)c1,-18.4%
12,CCN(CC)C(=O)C(C)OC(=O)COc1ccc(Cl)cc1C (stereo not drawn),-20.3%
13,Cc1cccc(OCC(O)Cn2c(-n3nc(C)cc3C)nc3c2c(=O)[nH]c(=O)n3C)c1 (stereo not drawn),-17.5%
14,COc1ccc(Cl)cc1NC(=O)CN(C)C(=O)CCNC(=O)c1ccccc1OC,-9.08%
15,Cc1cc(NC(=O)CCC(=O)N(c2ccccc2)C(C(=O)NC2CCCCC2)c2cccs2)no1 (stereo not drawn),4.02%
16,COc1cc(NC(=O)CSCC(=O)Nc2cc(OC)cc(OC)c2)cc(OC)c1,-5.08%
17,CCOC(=O)c1ccccc1Cc1nc2ccccc2c(=O)[nH]1,-3.92%
18,CCCCN(C(=O)c1ccc(Cl)c(S(=O)(=O)N2CCOCC2)c1)c1c(N)n(CCC)c(=O)[nH]c1=O,28.2%
19,Cc1cc(Cl)ccc1NC(=O)C1CCN(S(C)(=O)=O)CC1,7.9%
20,CCOC(=O)C1=C(C)NC2=C(C(=O)CC(C)(C)C2)C1c1cccc(C)n1 (stereo not drawn),-4.78%
21,CS(=O)(=O)O.Cc1cccc(/C=C2/C(=O)/C(=C/c3ccccc3C)C3CCC2N3C)c1 (stereo not drawn),6.11%
22,CCOc1ccc(S(=O)(=O)N(CC)CC(=O)NCc2ccncc2)cc1C,-8.61%

row,Structure (SMILES),"hERG current change (%, negative = inhibition) at 10uM"
1,Nc1nc(SCC(=O)Nc2ccc3c(c2)OCO3)n[nH]1,14.7%
2,Cc1ncsc1C(=O)N1CCCC(C(=O)c2ccc3ccccc3c2)C1 (stereo not drawn),-21.6%
3,Cc1cccc(-n2ncc(C#N)c2-n2cccc2)c1,-5.85%
4,CC1CCN(C(=O)c2cc(N3C(=O)C4C5CCC(C5)C4C3=O)ccc2Cl)CC1 (stereo not drawn),-11%
5,COC(=O)C1=C(c2ccc(F)cc2OCc2ccccc2)C[C@@H]2CC[C@H]1N2C(=O)N1CCCCC1,-9.9%
6,COC(=O)C1=C(C)N(Cc2ccco2)C(=O)N[C@H]1c1ccccc1,5.72%
7,CN(C)CCCNC(=S)N(Cc1cccs1)Cc1cc2cc3c(cc2[nH]c1=O)OCCO3,6.79%
8,CCC1COCCS(=O)(=O)N1Cc1ccccc1C (stereo not drawn),3.01%
9,Cc1ccccc1CNC(=O)c1ccccc1NS(C)(=O)=O,12.4%
10,COc1ccc(C(=S)N2CCCCC2)cc1Br,9.9%
11,CCCCNC(=O)NC1C(NC(=O)NCCCC)N(C)C(=O)N1C (stereo not drawn),15.8%
12,COc1ccc(CNCC(O)COc2ccc(C(C)(C)c3ccccc3)cc2)cc1.O=C(O)C(=O)O (stereo not drawn),-12.3%
13,CCOc1ccc(C(=O)Nc2ccc(N3CCN(C(C)=O)CC3)cc2)cc1[N+](=O)[O-],-45.5%
14,CSc1ccc(CN(C)C(=O)C2CCN(C(=O)Nc3ccccc3)CC2)cc1,-67.4%
15,COc1ccc(C/C(N)=N/OC(=O)c2ccc(Cl)cc2)cc1,11.5%
16,Cc1cc(CNC(=O)COc2c(F)c(F)cc(F)c2F)c2ccccc2n1,7.35%
17,O=C(c1cc([N+](=O)[O-])ccc1N1CCOCC1)N1CCN(S(=O)(=O)c2ccc(F)cc2)CC1,-32.5%
18,Cl.c1cc(Nc2ncnc3sc4c(c23)CCC4)ccn1,19.3%
19,C/C(=N\NC(=O)c1ccc(OC2CCCC2)cc1)c1ccc(O)cc1,12%
20,CC1CC(C)CN(S(=O)(=O)c2ccc(NC(=O)C3COc4ccccc4O3)cc2)C1 (stereo not drawn),15.5%
21,COc1ccc(NC(=O)CC2C(=O)NC3CCCCC3N2C(=O)c2ccc(F)cc2)cc1 (stereo not drawn),13.8%
22,CCC(=O)Nc1cccc(NC(=S)NC(=O)c2ccc(Cl)cc2Cl)c1,3.21%

row,Structure (SMILES),"hERG current change (%, negative = inhibition) at 10uM"
1,COc1ccccc1/C=C(/C(=O)OCC(N)=O)c1ccccc1,-5.21%
2,Cc1cc(N2CCN(C/C=C/c3ccccc3)CC2)n2ncnc2n1,-71.5%
3,O=C(Cn1cnc2c(nnn2-c2ccccc2)c1=O)NCc1ccc(F)cc1,3.39%
4,Cc1ccc2cc(CCNC(=O)CC(C)C)c(=O)[nH]c2c1,-1.02%
5,CC1C/C(=C/c2cccs2)C(=O)/C(=C/c2cccs2)C1 (stereo not drawn),-11.1%
6,CC1CN(C)C(C)C/C1=N/Oc1ccccc1[N+](=O)[O-].Cl (stereo not drawn),-26.5%
7,O=C1Nc2ccccc2C(O)(C(=O)NCc2ccc3c(c2)OCO3)N1c1ccc(Cl)c(Cl)c1 (stereo not drawn),20.6%
8,O=S(=O)(Nc1cccc(-n2cnnn2)c1)c1ccccc1F,17%
9,COc1ccccc1CNCC(c1ccccc1)c1ccccc1,-42.4%
10,O=C(N/N=C/c1ccoc1)c1cc(Br)ccc1O,14.2%
11,COc1ccc(CCNC(=O)c2ccccc2SC)cc1,17.5%
12,Cc1ccccc1NC(=S)NNC(=O)c1ccoc1C,-0.225%
13,CCOc1ccccc1NC(=O)c1cnc(NS(=O)(=O)c2ccccc2)nc1,17.8%
14,Cc1ccc(OC(C)C(=O)O)cc1C (stereo not drawn),-3.33%
15,COc1ccc2cc(CCNC(=O)c3cccc([N+](=O)[O-])c3)c(=O)[nH]c2c1,-79.2%
16,CC(C)(C)CC(=O)NC(=S)N1CCCCCC1,7.63%
17,C=CCN(Cc1nc(-c2ccccc2)no1)C(=O)c1ccoc1C,-4.69%
18,CN(C)C=O.CN(C)S(=O)(=O)c1cccc(NC(=O)CSc2ncnc3ccccc23)c1,-29%
19,CCCCC1(C)NC(=S)N2N1C(=S)NC2(C)CCCC (stereo not drawn),15.1%
20,CC(C)Cc1cc(CN2CCCC(CO)(Cc3cccc(Cl)c3)C2)[nH]n1 (stereo not drawn),-52.5%
21,CC(C(=O)Nc1ncccn1)(c1ccccc1)c1ccccc1,2.84%

# Source: article PMC4336329 (PLoS ONE, 2015)
